Source: article PMC12136788
The list shows a part of the results.

T1: UNK ZnF1-3 (human, UniProt Q9C0B0 31-174)
T1 sequence: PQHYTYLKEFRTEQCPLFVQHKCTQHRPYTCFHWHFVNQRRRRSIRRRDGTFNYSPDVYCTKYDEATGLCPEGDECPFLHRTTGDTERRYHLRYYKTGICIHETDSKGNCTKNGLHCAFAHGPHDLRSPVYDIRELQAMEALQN

B1: chr3:128532203:128532204:+_ENSG00000075785_ENST00000265062|hu_hu|FALSE|FALSE (ssRNA)
RNA: GGGAGUUCUACAGUCCGACGAUCACUGCAGCUUUCUGCCGAGGCCUUGGCCCGGUCAUUCUUGUCCAGUUUGAUAGGUUCAGGAAAUUCGUUGUACAGCUCCACCUCCGUUUCCUGCUUAAGUGCAUUCCGUGCAAUCGUCUGCAACAGAGGAUUGAGCAUCA
B2: chr13:115007635:115007636:+_ENSG00000130177_ENST00000356221|hu_hu|FALSE|FALSE (ssRNA)
RNA: GGGAGUUCUACAGUCCGACGAUCAAGCUUCAAAGCUUCUUUGUAGCUGUAGGUAGCCAGGGUUCGGUUAUCUAGAGCAUCAUAGAUUUUCCCGCGUAGAAGACAGAUAGAACUCUUUAUUGAAGACUGUGACAUUUCCCAGUCCAACAGAGGAUUGAGCAUCA
B3: chr14:14948730:14948731:-_ENSMUSG00000021737_ENSMUST00000022256|mus_hu|FALSE|FALSE (ssRNA)
RNA: GGGAGUUCUACAGUCCGACGAUCGAAAACAGAGUAACGGCAUUCAUAGAGUGAAAACAGAUACUGCCGAACUGCUGGAAGACUGUGCAACACUUCAAGAAUCUCUGCUCCUUUAAUGACCUUUUCCCUGAGAUCUGGUCUUUCCAACAGAGGAUUGAGCAUCA
B4: chr4:86222399:86222400:+_ENSMUSG00000070934_ENSMUST00000091064|mus_mus|FALSE|FALSE (ssRNA)
RNA: GGGAGUUCUACAGUCCGACGAUCGAACGUAGCUCUCUCGAACAGCAGAACUUCAUCAGCCUCAAUAAUCUGGGCAAAAUUCCUUAGGUUCAUCUCCAGCUGCUGAACGUUGGGGAUCAGCUGAUAGACGAUGCUGGACCAGGCCAACAGAGGAUUGAGCAUCA
B5: 30675574_30675694_3369_CDS_ENSG00000137337_ENST00000376406|human|control|control (ssRNA)
RNA: GGGAGUUCUACAGUCCGACGAUCCUCUCUGUUUGCUACUGGUCUCUCUACUUCUCUCUCAAAUGCUUUGCUUGGAAGGGUCUGCUUCUGUACUUGUUUCUCUUGUAUUUCCUCAGAUGUCUCAAUUUCUACCUUCAAACUCUCCAACAGAGGAUUGAGCAUCA
B6: chr14:89338683:89338684:+_ENSG00000165533_ENST00000346301|hu_hu|hu_hu_hu_mus_False|38_68 (ssRNA)
RNA: GGGAGUUCUACAGUCCGACGAUCGUGGUUGUUGUGGACCAGGGCCAGCCUGAAGCAUUGGUGGGCCAAAUUUGUAUCUCCGAUUCCCACAGCUAUGUGUCCCAAGUUGUACCAGACAUCAGCUGCCUCUUCUUCAUUUUCAGCCAACAGAGGAUUGAGCAUCA
B7: chr5:135496556:135496557:+_ENSG00000113658_ENST00000545279|hu_mus|motif|central (ssRNA)
RNA: GGGAGUUCUACAGUCCGACGAUCGUUCCUGAACUGAACCAGAAGGCUGUGUUGUGGAUUGAAUUCAUUGUGACGAGGCACGGAUACUGGAGGUAAGACUGGACUCUCCACUCUCUUAUAGUGGUAUGGAUUGAUACAAACUUCCAACAGAGGAUUGAGCAUCA
B8: chr19:16212804:16212805:+_ENSG00000167460_ENST00000300933|hu_mus|hu_hu_hu_mus_False|18_38 (ssRNA)
RNA: GGGAGUUCUACAGUCCGACGAUCAACAAUUCUGGAGUGAAGGAAAGAUGUAACAUGGAACAGCAUUAAAGCUCAGUCAGAAGGCACAUGGGCAACAAUGACUAUUUCAGCAUUCUCCUACGUUGACCUUAAAGACAAUCUGUUCAACAGAGGAUUGAGCAUCA
B9: chr2:207024631:207024632:+_ENSG00000114942_ENST00000392222|hu_hu|FALSE|FALSE (ssRNA)
RNA: GGGAGUUCUACAGUCCGACGAUCCGAGAGCUGGGGAGCAGCAGAAAGAGAGCGCGCAAAUUGUGGGCGCCCCACGCUGAAGAGAGGAAAAAGGACCCGAAGAGACCGGAAAAUUCCUUAUAUAGAGACGGAGGCGUUUCCCUCCAACAGAGGAUUGAGCAUCA
B10: chr7:65705844:65705845:+_ENSG00000169902_ENST00000304842|hu_mus|hu_hu_hu_mus_False|1_108 (ssRNA)
RNA: GGGAGUUCUACAGUCCGACGAUCAAAAGGAUCUUUAUUACAUAAAUAAGGUGCCGGCUCCCCAUGUUUAACAAUGACCUCCAGAAGGAAGGCUUGCAUGGCAGAAUCUAGCACUUCAUCUGUGACACCCGCCUCAUCCAGGCGCAACAGAGGAUUGAGCAUCA
B11: chr6:150114721:150114722:+_ENSG00000120265_ENST00000367380|hu_hu|FALSE|FALSE (ssRNA)
RNA: GGGAGUUCUACAGUCCGACGAUCGUCCUUCCUGACAUUAUUUACUGAGUCAUCUACUAGCUCUUUAAUGUGAUCAAUUCCUAUGACUUUUCCAGUACAUCCAACCAUACGUGCAAAACAUGCAGUAAGGAUUCCACUUCCAGACAACAGAGGAUUGAGCAUCA
B12: chr10:33214929:33214930:-_ENSG00000150093_ENST00000302278|hu_hu|hu_hu_hu_mus_True|8_108 (ssRNA)
RNA: GGGAGUUCUACAGUCCGACGAUCAACAAGUUCAUUAAAAAACUCUCCUCUGUCAGUAAGACUAAGCACAUUUUUGUAGCUAAAUGGGCUGGUGCAGUUUUGUUCACUUGUACAAGGAUUUCUUAGCUUAGCUGGUGUUGUGCUCAACAGAGGAUUGAGCAUCA
B13: chr7:65705475:65705476:+_ENSG00000169902_ENST00000304842|hu_hu|hu_hu_hu_mus_True|18_38 (ssRNA)
RNA: GGGAGUUCUACAGUCCGACGAUCUCUAUUCGGUGAUGGCACUCCAUGGCAUGCUGGCCCAGGUAAAACACGGUCACAGAACUAAUCACCAGACACGCCAAUAGUAAGUUCUGCUUCAGCUUUCCAACCAUCUUGAUGUGGUUACAACAGAGGAUUGAGCAUCA
B14: chr1:244855233:244855234:+_ENSG00000121644_ENST00000302550|hu_mus|hu_hu_hu_mus_True|88_88 (ssRNA)
RNA: GGGAGUUCUACAGUCCGACGAUCCAUCAGAUGGUAGGCGUUGCCCUUGUAUUCUUUCCCCAGUUCUUCUACAAUUUUCUCUAUAUCAUCUUCUAGAAAGUCCGUACUUCCUAGAACAACAGCUUCUUUAAAUUUAAAUGUUUCCAACAGAGGAUUGAGCAUCA
B15: 37086491_37088370_348_CDS_ENSMUSG00000036398_ENSMUST00000040402|mouse|control|control (ssRNA)
RNA: GGGAGUUCUACAGUCCGACGAUCACAGCAGCAUUUCGACGAGCGUCGCCCCAUAUGCUCAUUGUCCACAGUGUCACUGGACCACUCCACCUUCUUCUCUGGCUUGCGUUUCCGAAGUUUCAUAGUUAGGCUCUGAUUCUCUGGCAACAGAGGAUUGAGCAUCA
B16: chr9:14812383:14812384:-_ENSMUSG00000031934_ENSMUST00000164273|mus_mus|mus_mus_mus_hu_True|68_68 (ssRNA)
RNA: GGGAGUUCUACAGUCCGACGAUCAUAGCCCAGGUAGAUACACGCUAACAGUAUAAUGAUGAGUGUCACCAGCCGGCAGCUAAUGUACUUGAUGAUUAAAUUAUUAGAAUUUUUCUUUGUCUUCAAGUACUGCUCCACAAUUGGCAACAGAGGAUUGAGCAUCA
B17: 2700817_2703710_1946_CDS_ENSG00000101596_ENST00000320876|human|control|control (ssRNA)
RNA: GGGAGUUCUACAGUCCGACGAUCGUCAAUUUUCAUUCGCUGUUCCUGUCCAUUUAAAAUCCUUGUAAAAAGGGUGUUCUUAUCUUUCAAUUUUAGCUCAAGAUCCAUAAACGUCAAUUUAUUUGUGCUGACCUGGAAUUUGUCCAACAGAGGAUUGAGCAUCA
B18: chr6:149979360:149979361:-_ENSG00000131023_ENST00000543571|hu_hu|FALSE|FALSE (ssRNA)
RNA: GGGAGUUCUACAGUCCGACGAUCAAAUGAUUGGGAAAAUACAAAUAAGUUCAUUAAAAACACAGGCUGAUUAUUCAUAUCUAUUACAUUCAGAAUUAUGCGAAACAAUUAGUUAUAUUGCAAAGCUGUAAUUCUUUUUCUAACCAACAGAGGAUUGAGCAUCA
B19: chr17:61910164:61910165:-_ENSG00000108604_ENST00000448276|hu_hu|motif|central (ssRNA)
RNA: GGGAGUUCUACAGUCCGACGAUCAAGUAUAAGGCUUUGGGGACCAAGCAACAAGGAAUCCUAUCACUACAUUUAUAAGACGGAAGCUGGAGAGUAGAGGGUGACAGCAGACACUCCUCACCCCAGCCUACGUGUCUGCGGCCCCAACAGAGGAUUGAGCAUCA
B20: chr22:19452774:19452775:-_ENSG00000070010_ENST00000399523|hu_hu|hu_hu_hu_mus_False|18_68 (ssRNA)
RNA: GGGAGUUCUACAGUCCGACGAUCCUUCUCAUUGUAGUUGAUAGCAAUCACAUCUCCAGUCGUCAGACAGGCAAAGUUUCUCAAUGCAUUUUCUAAUACCGCUUUAGGGUUGGUAAUGUCCAGGAAGUCUGGGCUCUGAGGCUGCAACAGAGGAUUGAGCAUCA
B21: chr8:11181129:11181130:+_ENSG00000104643_ENST00000221086|hu_hu|FALSE|FALSE (ssRNA)
RNA: GGGAGUUCUACAGUCCGACGAUCCAGUGCAUCUCUGGUUUAAGAAAACCUAUUUGUAGCUUGAUUAUAAUAAAUUAACUCUAUUCUAGAUGAUGGUUUAAUUUUACAAGCAGCAUUUGAAACACAUUGUAUAUGUAUGCUCAACAACAGAGGAUUGAGCAUCA
B22: chr6:44221449:44221450:+_ENSG00000096384_ENST00000371646|hu_mus|FALSE|FALSE (ssRNA)
RNA: GGGAGUUCUACAGUCCGACGAUCAACCCUGCUAUUCUGUGGGAGGGGAUCUUCCUGCCUUAAGGCACAGGACAGGAUAGAAGAUUCUUGUAGACAUGAGCAGAGAGCCAGGUGGGUCAGGGCUGCUGGGGGAGCCACGGGGAUCAACAGAGGAUUGAGCAUCA

biological target: T1, UNK ZnF1-3; test: nsRBNS (natural sequence RNA bind-n-seq); RBNS binding buffer (assumed for nsRBNS): 25 mM Tris pH 7.5, 150 mM KCl, 3 mM MgCl2, 0.01% Triton X-100, 500 ug/ml BSA, 20 U/ml SUPERase-In, 4 C; UNK is unkempt and MSI1 is Musashi-1; names of the RNAs are library labels; protein concentration not given here; high values mean tight binding

Binder	binding signal
B1	0.543 enrichment R
B2	1.08 enrichment R
B3	1.97 enrichment R
B4	1.24 enrichment R
B5	0.433 enrichment R
B6	0.86 enrichment R
B7	1.21 enrichment R
B8	1.16 enrichment R
B9	1.49 enrichment R
B10	0.398 enrichment R
B11	1.07 enrichment R
B12	1.1 enrichment R
B13	0.639 enrichment R
B14	1.25 enrichment R
B15	0.729 enrichment R
B16	1.36 enrichment R
B17	0.909 enrichment R
B18	0.706 enrichment R
B19	0.88 enrichment R
B20	0.865 enrichment R
B21	0.743 enrichment R
B22	1.94 enrichment R
